Data taken from PubChem BioAssay AID504332 (National Center for Advancing Translational Sciences (NCATS), 2011).
In all, about 350,000 compounds went through this assay and about 31,000 (8.9%) were called active. The inconclusive results got no clear call from the source; some entries with a clear call stand among them for comparison. Calls follow the shape of the dose curve; as a rule, active = well fitted inhibition curve with a large enough effect; inconclusive = small, poorly fitted or top-dose-only effect; inactive = no such curve, though single readings can be large or run the other way. Potencies beside an inconclusive call are fits to weak or partial responses and may not hold up.
% is scaled to controls: 0 for no effect and ±100 for the full control effect; potency is read from the fitted curve at half-maximal effect; tags tell the direction and shape of the fitted curve.
Also: nearly all actives have a fitted effect of over 75% in size.

What follows are compounds tested against Histone-lysine N-methyltransferase EHMT2 (Homo sapiens) (UniProt Q96KQ7) (assay: qHTS Assay for Inhibitors of Histone Lysine Methyltransferase G9a). Conditions: G9a H3K9 monomethylation, AlphaScreen, 2 h; activity, negative = inhibition: at 59 µM (top of the series) unless noted.
Chain of UniProt Q96KQ7 (Q96KQ7 whole entry, looked up): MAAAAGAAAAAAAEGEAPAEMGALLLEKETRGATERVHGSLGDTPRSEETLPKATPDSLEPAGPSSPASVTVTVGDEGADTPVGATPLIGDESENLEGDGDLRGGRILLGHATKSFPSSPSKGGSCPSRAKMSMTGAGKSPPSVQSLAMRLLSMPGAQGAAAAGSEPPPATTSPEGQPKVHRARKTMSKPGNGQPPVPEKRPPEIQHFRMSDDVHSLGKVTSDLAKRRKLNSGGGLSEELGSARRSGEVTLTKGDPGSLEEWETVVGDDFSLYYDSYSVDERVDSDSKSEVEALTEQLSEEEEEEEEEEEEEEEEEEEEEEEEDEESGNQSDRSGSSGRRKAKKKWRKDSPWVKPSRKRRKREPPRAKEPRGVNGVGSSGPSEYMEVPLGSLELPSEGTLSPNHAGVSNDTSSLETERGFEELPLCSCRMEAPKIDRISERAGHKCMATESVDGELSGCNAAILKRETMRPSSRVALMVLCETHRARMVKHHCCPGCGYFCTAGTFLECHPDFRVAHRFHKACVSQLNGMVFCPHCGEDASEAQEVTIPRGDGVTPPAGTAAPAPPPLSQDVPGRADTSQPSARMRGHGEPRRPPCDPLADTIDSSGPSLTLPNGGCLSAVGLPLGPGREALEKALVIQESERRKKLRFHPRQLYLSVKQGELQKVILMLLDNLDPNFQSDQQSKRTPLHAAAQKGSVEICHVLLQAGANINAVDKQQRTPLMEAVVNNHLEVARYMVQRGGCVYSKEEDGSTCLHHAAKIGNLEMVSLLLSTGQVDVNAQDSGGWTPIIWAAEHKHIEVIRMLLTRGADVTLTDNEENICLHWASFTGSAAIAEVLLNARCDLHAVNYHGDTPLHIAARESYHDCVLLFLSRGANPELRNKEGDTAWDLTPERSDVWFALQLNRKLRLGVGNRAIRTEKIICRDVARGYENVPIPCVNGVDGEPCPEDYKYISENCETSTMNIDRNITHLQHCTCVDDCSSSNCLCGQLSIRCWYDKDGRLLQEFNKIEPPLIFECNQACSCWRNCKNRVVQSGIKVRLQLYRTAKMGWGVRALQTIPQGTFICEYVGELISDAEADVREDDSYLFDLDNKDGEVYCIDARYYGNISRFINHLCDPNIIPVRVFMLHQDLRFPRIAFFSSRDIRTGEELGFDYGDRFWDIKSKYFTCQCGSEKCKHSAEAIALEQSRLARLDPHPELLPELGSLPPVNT
How it was run: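 G9a (20 nM) preincubated 15 min RT with compounds, then 500 nM biotinylated H3K9 peptide and 20 uM SAM added; 2 h RT reaction. Monomethyl-H3K9 product detected by AlphaScreen with anti-H3K9me1 antibody, streptavidin donor and anti-rabbit IgG acceptor beads.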
`CCC(C(=O)OCC(=O)NC(=O)c1ccccc1OC)c1ccccc1` (centres undefined) was tested, and the Potency was “inactive”. With `CCOc1ccc(C2CC(=O)Nc3cc4c(cc32)OCO4)cc1OC` (centres undefined) the Potency was inconclusive: 8.91 µM [inhibitor, full curve, poor fit]. With `CC(=O)c1cc2c(cc1NC(=O)CN1CCC(Cc3ccccc3)CC1)OCO2` the activity, negative = inhibition was inactive: -33.1% [at 2.33 µM]. With `Cc1cc(C)c2sc(N(CCCN(C)C)C(=O)c3ccc(S(=O)(=O)N4CCc5ccccc5C4)cc3)nc2c1` the Potency was active: 22.4 µM. `CC(CCc1ccccc1)NC(=O)COc1cc(F)ccc1[N+](=O)[O-]` (centres undefined) was tested, and the Potency was inconclusive: 50.1 µM [inhibitor, partial curve]. With `COc1ccccc1N1CCN(C(=O)c2oc3ccccc3c2C)CC1` the Potency was inconclusive: 89.1 µM [inhibitor, partial curve, poor fit]. With `CC(=O)C1=C(O)C(=O)N(Cc2ccco2)C1c1ccc(F)cc1` (centres undefined) the Potency was inconclusive: 14.1 µM [inhibitor, partial curve, poor fit]. `O=C(COC(=O)c1cccs1)c1ccc2c(c1)OCCO2` was tested, and the Potency was inconclusive: 89.1 µM [inhibitor, partial curve, poor fit]. For `COc1ccccc1Cn1c(C(C)C)nc2ccccc21`, the Potency was inconclusive: 44.7 µM [inhibitor, partial curve, poor fit]. In the case of `COc1ccc(S(=O)(=O)N2CCCC(C(=O)NCc3ccccn3)C2)cc1Cl` (centres undefined), the Potency is reported as inconclusive: 15.8 µM [inhibitor, partial curve, poor fit]. `COc1ccc(N2CCN(S(=O)(=O)c3ccc(OC)c(C(=O)N4CCCC4)c3)CC2)cc1` was tested, and the Potency was active: 79.4 µM. With `Cc1ccc2nc(N(CCCN(C)C)C(=O)c3ccc4c(c3)CCCC4)sc2c1` the Potency was inconclusive: 25.1 µM [inhibitor, single point]. With `CCCOc1cccc(C2c3c(oc4ccccc4c3=O)C(=O)N2c2nncs2)c1` (centres undefined) the Potency was “inactive”. `COc1ccccc1NCCC(=O)OCC(=O)NC1CCCCCC1` was tested, and the Potency was “inactive”. In the case of `O=C(Nc1c2c(nn1-c1ccccc1)CS(=O)C2)c1ccc(S(=O)(=O)N2CCOCC2)cc1` (centres undefined), the Potency is reported as inconclusive: 50.1 µM [inhibitor, partial curve, poor fit]. With `Cc1ccc(-c2nc(CS(=O)CC(=O)N3CCN(c4cccc(Cl)c4)CC3)c(C)o2)cc1` (centres undefined) the Potency was inconclusive: 22.4 µM [inhibitor, partial curve, poor fit]. `O=C(Nc1c2c(nn1-c1ccc(Cl)cc1)CS(=O)(=O)C2)c1cccc(F)c1` was tested, and the Potency was “inactive”. With `CCN(CCCNC(=O)c1c(C)cc(=O)oc1C)c1ccccc1` the Potency was inconclusive: 7.94 µM [inhibitor, full curve, poor fit]. For `O=C(Nc1cccc2[nH]ncc12)NS(=O)(=O)c1ccccc1`, the Potency was active: 39.8 µM. With `CN(C)/C=C1\SC(=S)N(c2ccc(Br)cc2)C1=O` the Potency was active: 44.7 µM. `COc1ccc(C2C(C(=O)Nc3ccc(F)cc3)=C(C)Nc3nc(CCCO)nn32)cc1` (centres undefined) was tested, and the Potency was inconclusive: 100 µM [inhibitor, single point]. With `S=C1SCN(Cc2cccnc2)CN1Cc1cccnc1` the Potency was inconclusive: 50.1 µM [inhibitor, partial curve]. In the case of `Cc1ccc2nc(NC(=O)c3cccc(-c4cc5ccccc5oc4=O)c3)sc2c1`, the Potency is reported as inconclusive: 50.1 µM [inhibitor, partial curve, poor fit]. With `Cc1ccc(-n2nnnc2SCn2nnc3ccccc3c2=O)cc1` the Potency was inconclusive: 31.6 µM [inhibitor, single point]. For `O=C(Cc1ccccc1F)Nc1ccc(Cl)nc1`, the Potency was inconclusive: 12.6 µM [inhibitor, partial curve, poor fit]. In the case of `Cc1ccc(S(=O)(=O)Nc2ccccc2C(O)c2ccccc2)cc1` (centres undefined), the activity, negative = inhibition is reported as inactive: 4% [at 0.501 µM]. For `CCC(=O)N1CCc2cc(OC)c(OC)cc2C1COc1ccccc1OC` (centres undefined), the Potency was “inactive”. In the case of `Cc1cccc(OCc2ccc(-c3nc(C#N)c(NCc4cccnc4)o3)o2)c1`, the Potency is reported as inconclusive: 39.8 µM [inhibitor, partial curve, poor fit]. In the case of `CC(C)CN1C(=S)SC(C)(C)C1n1oc(=O)n(-c2ccccc2)c1=O` (centres undefined), the Potency is reported as inconclusive: 3.98 µM [inhibitor, partial curve, poor fit]. With `CC(C)CCNC(=O)NC(=O)Cn1cc(C(F)(F)F)ccc1=O` the Potency was inconclusive: 79.4 µM [inhibitor, partial curve, poor fit]. With `CCOc1ccccc1NC(=O)c1c(NCc2cccs2)sc2c1CCC(C)C2` (centres undefined) the Potency was “inactive”. For `Cn1c(SCC(=O)Nc2ccc(N3CCOCC3)cc2)nnc1-c1ccccc1`, the activity, negative = inhibition was inconclusive: -68.3% [inhibitor]. `Fc1cccc(Cn2cc(C(=S)N3CCOCC3)c3ccccc32)c1` was tested, and the Potency was inconclusive: 39.8 µM [inhibitor, partial curve, poor fit]. In the case of `CCCc1cc(C(=O)Nc2cccnc2)no1`, the Potency is reported as inconclusive: 100 µM [inhibitor, single point]. For `CCN(CC)C(=O)CSc1nnc(NC(=O)CCc2ccccc2)s1`, the Potency was inconclusive: 39.8 µM [inhibitor, single point]. In the case of `Cc1cc(N/N=C/c2ccccc2O)nc(N2CCOCC2)n1`, the Potency is reported as inconclusive: 50.1 µM [inhibitor, partial curve, poor fit]. `CCN(CC(=O)Nc1ccccc1OC)C(=O)c1ccc2[nH]c3c(c2c1)CC(C)CC3` (centres undefined) was tested, and the activity, negative = inhibition was inactive: -11.9% [at 12.7 µM]. With `COc1ccccc1C(=O)Nc1nc(-c2cccs2)c(NC(C)=O)s1` the Potency was inconclusive: 39.8 µM [inhibitor, partial curve, poor fit]. In the case of `Clc1ccc(OCCn2cnc3ccccc32)cc1`, the Potency is reported as “inactive”. With `COc1ccc(F)cc1S(=O)(=O)NCC(c1ccco1)N1CCc2ccccc2C1` (centres undefined) the Potency was inconclusive: 50.1 µM [inhibitor, partial curve]. With `CCCCCC(=O)Nc1cccc2ccccc12` the Potency was “inactive”. For `CCc1ccccc1NC(=S)N(CCc1ccncc1)C(C)C`, the Potency was inconclusive: 70.8 µM [inhibitor, single point]. For `COc1ccc(OC)c(-n2c(-c3ccccc3)n[nH]c2=S)c1`, the Potency was inconclusive: 1.26 µM [inhibitor, full curve, poor fit]. For `Cc1ccc(CN2COc3ccc4c(-c5ccccc5)cc(=O)oc4c3C2)cc1`, the Potency was “inactive”. `O=C(COC(=O)c1ccc(Cl)nc1)Nc1ccc(S(=O)(=O)N2CCCC2)cc1` was tested, and the Potency was active: 44.7 µM. `CCOC(=O)C(O)(NC(=O)c1cccnc1)C(F)(F)F` (centres undefined) was tested, and the Potency was inconclusive: 0.708 µM [inhibitor, full curve, poor fit]. With `O=c1[nH]c(/C=C\c2cccnc2)c([N+](=O)[O-])c(=O)[nH]1` the Potency was “inactive”. With `CC(=O)Nc1ccc(Nc2nc(C)c([N+](=O)[O-])c(Nc3ccccc3)n2)cc1` the Potency was inconclusive: 0.708 µM [inhibitor, partial curve, poor fit]. For `COc1ccccc1NC(=O)CN1C(=O)C2(SCC(=O)N2c2ccc(F)c(F)c2)c2ccccc21` (centres undefined), the Potency was “inactive”. In the case of `O=C(NCc1ccccc1)C(=O)Nc1ccc2nc3n(c(=O)c2c1)CCCCC3`, the Potency is reported as “inactive”. For `CN1CCN(c2nc3c(c(=O)n(C)c(=O)n3C)n2CCSc2nnnn2-c2ccccc2)CC1`, the Potency was inconclusive: 39.8 µM [inhibitor, single point]. `O=C1NCC2=C1C(c1ccc(Br)cc1)Nc1ccccc1N2` (centres undefined) was tested, and the Potency was active: 44.7 µM. With `Cc1nn(Cc2ccc(F)cc2)c(C)c1NC(=O)c1nn(C)cc1Cl` the Potency was “inactive”. In the case of `CC(NC(=O)Cc1ccc(NC(=O)N2CCSc3ncccc32)cc1)c1ccccc1` (centres undefined), the Potency is reported as inconclusive: 6.31 µM [inhibitor, single point]. In the case of `CCNC(=S)N(CCN(CC)CC)Cc1cc2cc3c(cc2[nH]c1=O)OCO3`, the Potency is reported as “inactive”. In the case of `CCCOc1ccc(C(=O)Nc2ccc(NC(=O)c3ccccc3)c(Br)c2)cc1`, the Potency is reported as “inactive”. With `CCOC(=O)c1c(NC(=O)Cn2nc(C(F)(F)F)cc2C)sc(C)c1C` the Potency was inconclusive: 39.8 µM [inhibitor, single point]. `CN1CCN(C(=S)NC(=O)/C=C/c2cccc3ccccc23)CC1` was tested, and the Potency was “inactive”. `O=C(Nc1nnc2n1CCS2)c1ccco1` was tested, and the Potency was active: 1.78 µM. With `COc1cc(C2NC(=O)NC(c3ccccc3)=C2C(C)=O)ccc1OCC#N` (centres undefined) the Potency was inconclusive: 56.2 µM [inhibitor, partial curve]. `Cc1ccc(Cl)c2c1NC(=O)C2(O)CC(=O)c1ccc(Br)cc1` (centres undefined) was tested, and the Potency was inconclusive: 28.2 µM [inhibitor, single point]. With `CCc1ccc(NC(=O)c2ccccc2NC(=O)C2CCCO2)cc1` (centres undefined) the Potency was inconclusive: 89.1 µM [inhibitor, single point]. With `Cc1cc(C)c(C)c(S(=O)(=O)Nc2ccccc2C(=O)O)c1C` the Potency was inconclusive: 79.4 µM [inhibitor, partial curve, poor fit]. With `O=C(O)Cn1nnc(-c2ccc(OCc3ccccc3Cl)cc2)n1` the Potency was inconclusive: 0.251 µM [inhibitor, partial curve, poor fit]. For `C#CCN(C)CC/C=C1\c2ccccc2CSc2ccccc21`, the Potency was active: 14.1 µM. In the case of `O=S(=O)(c1cccs1)N1CCN(c2ccnc3cc(Cl)ccc23)CC1`, the Potency is reported as inconclusive: 50.1 µM [inhibitor, partial curve, poor fit]. For `Clc1ccc(OCc2nnc(SCCN3CCCCC3)n2Cc2ccco2)cc1`, the Potency was inconclusive: 2.24 µM [inhibitor, partial curve, poor fit]. In the case of `Cc1ccc(/C=N/NC(=O)c2ccccn2)s1`, the Potency is reported as inconclusive: 35.5 µM [inhibitor, single point]. For `Cc1ccc(C(=O)Nc2nnc(CC(=O)N/N=C/c3ccncc3)s2)cc1`, the Potency was active: 35.5 µM.
